Results from PubChem BioAssay AID588591 (National Center for Advancing Translational Sciences (NCATS), 2011).
Among all 390,000 compounds or so, about 4,700 (1.2%) were called active. Another 4% or so got no clear call; they are omitted. The call rests on the fitted dose curve; in most records, active means well fitted inhibition curve with a large enough effect; inconclusive means small, poorly fitted or top-dose-only effect, or another doubt; inactive means no such curve, though single readings can be large or run the other way. This is a selection; strong and weak results do not stand in their true shares.

target: DNA polymerase eta (Homo sapiens) (UniProt Q9Y253); experiment: qHTS for Inhibitors of Polymerase Eta; conditions: recombinant Pol eta, fluorescent DNA replication assay; series mostly up to 114 µM; activity change, negative = inhibition: at the top concentration
Outline: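 Pol eta at 10 nM preincubated with compounds 15 min at room temperature; reaction started with fluorescent substrate (50 nM final) and read kinetically at 0 and 10 min.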
On the % scale 0 is the no-effect control and ±100 the full control effect; potency means the concentration at half of the fitted maximal effect.

Sequence of UniProt Q9Y253 (Q9Y253 whole entry, looked up): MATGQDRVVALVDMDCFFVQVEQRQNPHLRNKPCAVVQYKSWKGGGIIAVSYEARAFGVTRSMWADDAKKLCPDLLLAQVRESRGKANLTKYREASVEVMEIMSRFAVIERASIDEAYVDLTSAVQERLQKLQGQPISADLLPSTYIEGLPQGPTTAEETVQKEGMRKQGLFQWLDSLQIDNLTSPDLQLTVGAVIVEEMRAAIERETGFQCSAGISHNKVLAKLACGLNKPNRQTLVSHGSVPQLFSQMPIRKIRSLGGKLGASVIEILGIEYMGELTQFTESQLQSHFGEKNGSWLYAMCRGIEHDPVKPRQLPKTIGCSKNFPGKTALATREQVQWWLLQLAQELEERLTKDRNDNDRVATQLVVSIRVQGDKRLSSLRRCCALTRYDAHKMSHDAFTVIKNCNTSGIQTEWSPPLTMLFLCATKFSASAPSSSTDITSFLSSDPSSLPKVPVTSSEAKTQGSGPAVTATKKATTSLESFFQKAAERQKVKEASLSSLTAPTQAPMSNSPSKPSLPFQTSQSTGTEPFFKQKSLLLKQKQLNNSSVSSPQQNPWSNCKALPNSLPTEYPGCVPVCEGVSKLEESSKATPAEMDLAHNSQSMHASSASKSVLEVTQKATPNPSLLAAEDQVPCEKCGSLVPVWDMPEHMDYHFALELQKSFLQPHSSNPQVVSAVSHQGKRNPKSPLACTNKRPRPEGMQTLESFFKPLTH

SMILES | Potency | activity change, negative = inhibition
Cc1ccc(NC(=O)C(C)OC(=O)c2ccc(Cl)nc2)cc1S(=O)(=O)N1CCOCC1 (stereo unspecified) | active: 20 µM | –
CCCN(CCC)CCNC(=O)c1cc2c(-c3ccc(Cl)cc3)nn(C)c2s1 | inactive | –
CCc1ccccc1NC(=O)Cc1cn(C)c2ccccc12 | – | inactive: -9.1%
O=C(CSc1nnc(-c2ccccc2)o1)c1nnc(-c2ccccc2)o1 | active: 20 µM | –
CCCCCCN1C[C@@H](n2cc(C3CC3)nn2)[C@H](O)C[C@@H]1c1ccc(Cl)cc1 | – | inactive: -19.5%
CC(C)Cc1nc2sc3c(SCC(N)=O)ncnc3c2c2c1CCC2 | – | inactive: 39.6%
C[C@@H]1CN([C@@H](C)CO)C(=O)CCCn2nncc2CO[C@H]1CN(C)C(=O)Nc1cccc(Oc2ccccn2)c1 | – | inactive: -6.87%
CC(/C=N/Nc1ccc2nncn2n1)=C\c1ccccc1 | active: 79.4 µM | –
Cc1noc(C)c1S(=O)(=O)N1CCC(C(=O)N2CCN(c3ccccc3Cl)CC2)CC1 | – | inactive: -1.66%
O=C(C1CCCCC1)N1C[C@H](n2cc(-c3ccc(F)cc3)nn2)[C@@H](O)C[C@@H]1c1ccccc1 | – | inactive: -1.92%
O=c1c(O[C@@H]2O[C@H](CO)[C@@H](O)[C@H](O)[C@H]2O)c(-c2ccc(O)cc2)oc2cc(O)cc(O)c12 | – | inactive: 4.16%
CC(=O)C[C@@H](O)CC(=O)[C@H]1OC(=O)[C@H](C)C/C=C\Cc2ccccc21 | – | inactive: -7.68%
CSc1oc(-c2cccs2)nc1S(=O)(=O)c1ccccc1 | – | inactive: 31.1%
N#C/C(=C(/O)CCl)c1nc2c(s1)CCc1ccccc1-2 | active: 35.5 µM | –
COc1ccc(NC2c3ccccc3C(=O)N2Cc2ccccc2Cl)cc1OC (stereo unspecified) | – | inactive: 46.6%
CCC(=O)OC1(C)C(=O)C2=COC(c3ccc(OC)cc3)=CC2=C(Br)C1=O (stereo unspecified) | active: 44.7 µM | –
O=C(OCc1cn([C@H]2CN(C(=O)C3CCCCC3)[C@@H](c3ccc(Cl)cc3)C[C@@H]2O)nn1)c1ccccc1 | – | inactive: -31.2%
CCc1ccccc1N(C(C)=O)c1nc(CN=C=S)cs1 | – | inactive: 21.2%
COc1ccc(-c2cc(C(=O)Nc3cc(C)nn3-c3ccccc3)no2)cc1OC | inactive | –
Cn1c(SCC(=O)N/N=C/C=C\c2ccco2)nc2ccccc21 | active: 22.4 µM | –
C=CC[C@@H](Cc1ccc(F)cc1)C(=O)OC[C@H]1CCCN1C(=O)[C@@H](CC=C)CC(=O)N[C@@H](CO)Cc1ccccc1 | – | inactive: -24.2%
O=C(Cc1ccc(S(=O)(=O)N2CCOCC2)s1)Nc1nc2c(s1)CCCC2 | active: 3.98 µM | –
Cc1cccc(NC(=O)Nc2ccc(C)c(C)c2)n1 | – | inactive: -17.1%

SMILES | Potency | activity change, negative = inhibition
COc1ccc(Cl)cc1NC(=O)c1noc2c1CCCC2 | – | inactive: 44.8%
O=C(/C=C/c1ccc(O)c(O)c1)OCCc1ccccc1 | – | inactive: 4.64%
CCN(CC)c1ccc(SS(=O)(=O)O)cc1 | – | inactive: -19.8%
N=C1/C(=C\c2ccc(SCc3ccccc3)o2)C(=O)N=C2SC(CC(=O)N3CCOCC3)=NN12 | active: 56.2 µM | –
Cc1c2cnn(CC(=O)Nc3c(F)c(F)cc(F)c3F)c(=O)c2c(C)n1Cc1ccccc1F | active: 39.8 µM | –
Nc1nc(NCC2CCCO2)nc(Nc2cccc(F)c2)c1[N+](=O)[O-] (stereo unspecified) | – | inactive: 34.3%
O=C(CSc1nc(-c2ccccc2)nc2ccc(F)cc12)Nc1cccc(C(=O)O)c1 | active: 79.4 µM | –
COC(=O)C1=CO[C@@H](O[C@@H]2O[C@H](CO)[C@@H](O)[C@H](O)[C@H]2O)C2C1C=C[C@@]2(O)CO (stereo partly specified) | – | inactive: -15.7%
NC(=O)c1nn(-c2ccccc2)nc1NC(=O)CN1CCOCC1 | – | inactive: 41.6%
COC(=O)C(CC(C)C)NC(=O)CNC(=O)c1ccccc1C (stereo unspecified) | – | inactive: -14.9%
Cc1cc(C=O)c(C)n1-c1cccc(C(=O)O)c1 | active: 3.98 µM | –
O=C(N/N=C/c1ccc(O)cc1O)c1ccc(NC(=O)C2CCCCC2)cc1 | active: 35.5 µM | –
CC(=O)C[C@H](O)CC(=O)[C@H]1OC(=O)[C@@H](C)C/C=C\Cc2ccccc21 | – | inactive: -12.9%
CN(C(=O)CCS(=O)(=O)c1cc2c(cc1Cl)NC(=O)CO2)C1CCCCC1 | – | inactive: 0.526%
OCC[C@H]1C[C@H](O)[C@@H](O)[C@]2(CCCc3ccccc3O2)O1 | – | inactive: 1.82%
C[C@@H]1O[C@@H](OC[C@@H]2O[C@H](Oc3c(-c4ccc(O)cc4)oc4cc(O)cc(O)c4c3=O)[C@@H](O)[C@H](O)[C@H]2O)[C@H](O)[C@H](O)[C@H]1O | – | inactive: 3.73%
CCOCCc1c(O)nc(SCC(=O)NCc2ccco2)[nH]c1=O | active: 15.8 µM | –
Cc1cc(Oc2ccc(=O)n(C)n2)nc(SCC(N)=O)n1 | – | inactive: 29.3%
C[C@@H](NC(=O)c1ncn(Cc2ccccc2)c1C(=O)N[C@H](C)c1ccccc1)c1ccccc1 | – | inactive: -18.9%
COc1ccccc1N1CCN(C(=O)c2cc3c(=O)n(C)c4ccccc4c3n2C)CC1 | – | inactive: -11.9%
O=C(Cc1ccc(S(=O)(=O)N2CCCC2)s1)NC1CCCCCC1 | active: 14.1 µM | –
Cc1c(NC(=O)c2ccccc2F)cccc1-c1nc2cccnc2s1 | – | inactive: 22.9%
O=c1c(C(c2ccc(F)cc2)c2c(O)nc3n(c2=O)CCCS3)c(O)nc2n1CCCS2 | – | inactive: 29.8%

SMILES | Potency | activity change, negative = inhibition
COc1cccc(/C=C2\SC(=S)N(CCCC(=O)N3CCCCC3)C2=O)c1 | – | inactive: 18.4%
CN(C(=O)COC(=O)c1nc(-c2ccccc2)n(-c2ccccc2)n1)C1CCS(=O)(=O)C1 (stereo unspecified) | – | inactive: -2.3%
O=C(O)/C(=C\c1ccc(Cl)c([N+](=O)[O-])c1)c1ccc(S(=O)(=O)N2CCCCC2)s1 | active: 79.4 µM | –
NC(=O)CSc1nnc2ccc(-c3ccc(F)cc3)nn12 | – | inactive: 45.1%
CC(=O)Nc1ccc(Nc2nnc(-c3ccc(C)c(S(N)(=O)=O)c3)c3ccccc23)cc1 | – | inactive: -29%
O=C(O)CC(NC(=O)C(c1ccccc1)c1ccccc1)c1cccc([N+](=O)[O-])c1 (stereo unspecified) | – | inactive: 22.6%
O=C(CCCN1C(=O)/C(=C\c2cccs2)SC1=S)NNC(=O)c1ccncc1 | – | inactive: -11.1%
O=C(O)c1cccc(NC(=O)c2ccc3c(c2)C(=O)N(Cc2ccco2)C3=O)c1 | active: 17.8 µM | –
Cc1ccccc1/C=C/c1nc2ccccc2c(=O)n1Cc1ccccc1 | – | inactive: -3.47%
Cc1nc(/C=C/c2ccccc2)[nH]c(=O)c1-c1ccccc1 | – | inactive: -6.85%
Cc1onc(-c2ccc(Cl)cc2Cl)c1C(=O)/C=C/N(C)C | – | inactive: 22.2%
CCOCCCNC(=O)C(c1ccc(C)cc1)N(Cc1ccc2c(c1)OCO2)C(=O)c1cnccn1 (stereo unspecified) | – | inactive: 7.08%
COc1ccccc1NC(=O)C(CCS(C)(=O)=O)N1C(=O)c2ccccc2C1=O (stereo unspecified) | – | inactive: -7.87%
CCOC(=O)c1ccc(S(=O)(=O)N2CCN(S(=O)(=O)CC)CC2)cc1 | – | inactive: 0.266%
CC(=O)c1ccc(NC(=O)c2ccc(-c3nc(CSc4ccccc4)c(C)o3)cc2)cc1 | – | inactive: 15%
COc1ccc(C[C@@H]2CN3C(=NC[C@@H]3C)N2CCNC(=O)c2ccc(C)c(Br)c2)cc1 | – | inactive: -10.9%
CC(C)(C)OC(=O)NCc1ccc(NC(=O)c2nc[nH]c2C(=O)NCCCCCCNC(=O)c2[nH]cnc2C(=O)Nc2ccc(CNC(=O)OC(C)(C)C)cc2)cc1 | – | inactive: 36.1%
Cc1ccc(CN(C)C(=O)CCc2nc3sc4c(c3c(=O)[nH]2)CCCC4)o1 | active: 22.4 µM | –
CCN1CC2=C(OC(N)=C(C#N)C2c2cccs2)/C(=C\c2cccs2)C1 (stereo unspecified) | – | inactive: -27.2%
O=C(NC(Cc1ccccc1)C(=O)O)/C(=C/c1ccc(Cl)cc1)NC(=O)c1ccco1 (stereo unspecified) | – | inactive: -17.3%
O=C(CCl)N(c1ccccc1)c1c[nH]c2ccccc12 | active: 14.1 µM | –
C#CCNc1c2c(nc3ncnn13)CC(C)CC2 (stereo unspecified) | – | inactive: 25.5%
O=C(O)/C=C\C(=O)NNC(=O)c1cc(-c2ccccc2)n[nH]1 | – | inactive: -10.7%

SMILES | Potency | activity change, negative = inhibition
COc1ccc(S(=O)(=O)/N=C2\C=C(NS(=O)(=O)c3ccccc3)C(=O)c3ccccc32)cc1 | active: 22.4 µM | –
OCCN1c2ccccc2CCc2ccccc21 | – | inactive: 24.9%
O=C1CNC(=O)/C1=C/c1ccc(O)cc1 | – | inactive: 0.686%
Cc1[nH]n(-c2ccccc2)c(=O)c1N=Nc1c(O)cc(S(=O)(=O)N(C)C)c2ccccc12 | active: 89.1 µM | –
COc1ccc(C(C(=O)NC2CCCC2)N(C(=O)c2snc(C(N)=O)c2N)c2cccc(O)c2)cc1 (stereo unspecified) | active: 22.4 µM | –
C[C@H](CO)N1C[C@H](C)[C@@H](CN(C)C(=O)Nc2cccc(Oc3ccccn3)c2)OCc2cnnn2CCCC1=O | – | inactive: -9.97%
CCCCn1c(N)c(N(CCOC)C(=O)c2cc(-c3ccco3)nc3ccccc23)c(=O)[nH]c1=O | active: 11.2 µM | –
O=C(O)c1ccc(NN=CC2=C(N3CCOCC3)/C(=C/c3ccccc3)CC2)cc1 | active: 39.8 µM | –
Cc1cc(Br)ccc1NC(=O)CSc1c2c(nc3ccccc13)CCC2 | – | inactive: 19.7%
CC1(c2ccc(OC(F)F)cc2)NC(=O)N(CC(=O)Nc2cccc(S(N)(=O)=O)c2)C1=O (stereo unspecified) | – | inactive: 37.8%
Cc1nn(CCC(=O)Nc2cccc(C#N)c2)c(C)c1S(=O)(=O)N1CCCCC1 | – | inactive: -12.8%
CN1CCOC1c1ccc(C2OCCN2C)cc1 (stereo unspecified) | active: 20 µM | –
COCCn1cnc2c(c1=O)c1nc3ccccc3nc1n2/N=C/c1ccco1 | – | inactive: 34.4%
COc1ccc(/C=C2\SC(=O)N(CCC(=O)Nc3ccc(S(=O)(=O)Nc4nccs4)cc3)C2=O)cc1 | – | inactive: -15.1%
COc1ccccc1NC(=O)c1ccc([N+](=O)[O-])o1 | – | inactive: 14.2%
Cc1ccc(-n2c(CCC(=O)O)ccc2-c2cccs2)cc1C | – | inactive: 2.45%
COc1ccc(OCC(=O)Nc2nnc(S(=O)(=O)N3CCCCCC3)s2)cc1 | – | inactive: 0.101%
COc1ccc(-c2csc(NC(=S)NC(=O)c3cccs3)n2)cc1OC | active: 20 µM | –
CCS(=O)(=O)C1=NSC2=NC(=O)/C(=C\c3ccc(OS(=O)(=O)c4ccccc4)c(OC)c3)C(=N)N21 | active: 39.8 µM | –
CCc1cccc2c(-c3ccccc3)nc(SCC(=O)Nc3ccccc3)nc12 | – | inactive: 14.9%
O=C(CN1C(=O)C(=O)N(Cc2ccco2)C1=O)Nc1ccccc1 | active: 20 µM | –
C=CC[C@@H](CC(=O)N(CCO)Cc1ccccc1)C(=O)N[C@@H](COC(=O)[C@@H](CC=C)Cc1ccc(F)cc1)Cc1ccccc1 | – | inactive: -16.9%
